Source: the supplement of paper PMC10338343
± gives the standard deviation. The list shows a part of the results, in another mix than the full data.

Tested on: MIWI (PIWIL1) piRISC loaded with L1MC piRNA (30 nt)
Assay: pre-steady-state target cleavage rate (min^-1); MIWI and MILI are mouse PIWI proteins and EfPiwi is from a freshwater sponge; tags in brackets are library labels; higher = faster piRNA-guided slicing of the target
Settings: guide: L1MC piRNA 5'p-UAACUAAAUACUAUGCAAGCUGUAGGUCCU
Outline: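 Active affinity-purified piRISC carrying one synthetic guide (1 nM) was mixed with a transcribed, DNA-blocked target RNA library […] in HEPES–potassium acetate buffer at 33 °C for 0–8 or 0–960 min, with or without 500 nM GTSF1 partner protein. Uncleaved targets were then sequenced and normalised to depth and to weakly complementary targets. Three trials were pooled, and k3 was capped at 0.0001 min^-1. A burst-and-steady-state fit was applied to obtain the pre-steady-state cleavage rate.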

[1] = auxiliary factor: 500 nM mouse GTSF1
[2] = auxiliary factor: none (no GTSF1)
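Note: 1 nM active piRISC with 0.1 nM target library at 33 °C single turnover.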

## UCCUGGAUGAGCUUGCAUUGAAUUUAGUUA
[1]
  pre-steady-state target cleavage rate: 0.0232 ± 0.0044
[2]
  pre-steady-state target cleavage rate: 0.00429 ± 0.0025

## UCCUGGAUGACCUUGCAUAGUAUUUAGUUA
[1]
  pre-steady-state target cleavage rate: 0.287 ± 0.031
[2]
  pre-steady-state target cleavage rate: 0.0116 ± 0.0053

## UCCUGGAUGAGCUUGCAUAGUAUUUUGAUA
[1]
  pre-steady-state target cleavage rate: 0.258 ± 0.05
[2]
  pre-steady-state target cleavage rate: 0.00935 ± 0.0036

## UCCUCCUAGAGCUUGCAUUGUAUUUAGUUA
[1]
  pre-steady-state target cleavage rate: 0.779 ± 0.026
[2]
  pre-steady-state target cleavage rate: 0.0216 ± 0.0049

## UCCUGGAAGAGCUUGCAUAGUAUUUAGUAA
[1]
  pre-steady-state target cleavage rate: 0.596 ± 0.047
[2]
  pre-steady-state target cleavage rate: 0.0217 ± 0.0058

## UCGACCUACAGCAUGCAAAGUAUUUAGUUA
[1]
  pre-steady-state target cleavage rate: 1.02 ± 0.039
[2]
  pre-steady-state target cleavage rate: 0.0116 ± 0.0028

## UCCUGGAUGAGCUUGCAUAGUUAUUUAGUUA
[1]
  pre-steady-state target cleavage rate: 0.0115 ± 0.0042
[2]
  pre-steady-state target cleavage rate: 0.00555 ± 0.0031

## UCCUGGAUGAGCAUGCAUAGUAUAUAGUUA
[1]
  pre-steady-state target cleavage rate: 0.157 ± 0.021
[2]
  pre-steady-state target cleavage rate: 0.00567 ± 0.0024

## UCCUGGAACAGCAAGCAUAGUAUUUAGUAA
[1]
  pre-steady-state target cleavage rate: 0.469 ± 0.041
[2]
  pre-steady-state target cleavage rate: 0.00301 ± 0.003

## UCCUGCUAGAGCUUGCAUAGUAUAUAGUUA
[1]
  pre-steady-state target cleavage rate: 0.378 ± 0.044
[2]
  pre-steady-state target cleavage rate: 0.0138 ± 0.0038

## UCCUCGUACACCUUGCAUAGUAUUUAGUUA
[1]
  pre-steady-state target cleavage rate: 0.866 ± 0.041
[2]
  pre-steady-state target cleavage rate: 0.0345 ± 0.0061

## ACGACCUACAGCUUGCAUAGUAUUUACUUA
[1]
  pre-steady-state target cleavage rate: 0.379 ± 0.029
[2]
  pre-steady-state target cleavage rate: 0.0444 ± 0.0076

## UCCUGGAUCAGGUUGGAUAGUAUUUAGUUA
[1]
  pre-steady-state target cleavage rate: 0.375 ± 0.042
[2]
  pre-steady-state target cleavage rate: 0.00595 ± 0.003

## UCCUGGUACAGCUUGCAUAGUAUUUAGCUUA
[1]
  pre-steady-state target cleavage rate: 0.235 ± 0.039
[2]
  pre-steady-state target cleavage rate: 0.0296 ± 0.0086

## UCCACCUACAGCUUGCAUAGUGAUUUAGUUA
[1]
  pre-steady-state target cleavage rate: 0.106 ± 0.02
[2]
  pre-steady-state target cleavage rate: 0.00454 ± 0.0024

## AGGACCUACAGCUUGCAUAGUAUUUCGUUA
[1]
  pre-steady-state target cleavage rate: 0.68 ± 0.071
[2]
  pre-steady-state target cleavage rate: 0.0542 ± 0.011

## AGGACCUAGUGCUUGCAUAGUAUUUAGAAA
[1]
  pre-steady-state target cleavage rate: 0.19 ± 0.033
[2]
  pre-steady-state target cleavage rate: 0.00715 ± 0.0021

## AGGACGUACACCUUGCAUAGUAUUUAGUUA
[1]
  pre-steady-state target cleavage rate: 1.15 ± 0.038
[2]
  pre-steady-state target cleavage rate: 0.0611 ± 0.01

## UGGACCUACAGCAUUGCAUAGUAUUUAGUUA
[1]
  pre-steady-state target cleavage rate: 1.27 ± 0.11
[2]
  pre-steady-state target cleavage rate: 0.0665 ± 0.014

## AGGACCUACAGCUAGCAUACUAUUUAGUUA
[1]
  pre-steady-state target cleavage rate: 0.389 ± 0.029
[2]
  pre-steady-state target cleavage rate: 0.0192 ± 0.0036

## UGGACGUACAGCUUCCAUAGUAUUUAGUUA
[1]
  pre-steady-state target cleavage rate: 0.0744 ± 0.012
[2]
  pre-steady-state target cleavage rate: 0.00782 ± 0.0015

## UCCUGGAUCAGCUUGCUUACUAUUUAGUUA
[1]
  pre-steady-state target cleavage rate: 0.161 ± 0.011
[2]
  pre-steady-state target cleavage rate: 0.0105 ± 0.003

## UCGACCUACAGCUUGCAUAGUAAAUAGUAA
[1]
  pre-steady-state target cleavage rate: 0.433 ± 0.054
[2]
  pre-steady-state target cleavage rate: 0.0028 ± 0.0025

## UCCUGGAUCAGCUUGCAUAGAUUUUAGUUA
[1]
  pre-steady-state target cleavage rate: 0.0226 ± 0.0057
[2]
  pre-steady-state target cleavage rate: 0.00439 ± 0.0024

## UCCUGGAAGAGCUUGCAUAGUAUUUACUUA
[1]
  pre-steady-state target cleavage rate: 0.134 ± 0.026
[2]
  pre-steady-state target cleavage rate: 0.0136 ± 0.0036

## UGGUGCUACAGCUUGCAUAGUAUUUAGUUA
[1]
  pre-steady-state target cleavage rate: 0.988 ± 0.079
[2]
  pre-steady-state target cleavage rate: 0.0764 ± 0.017

## UGGACCAACAGCUUGCUUAGUAUUUAGUUA
[1]
  pre-steady-state target cleavage rate: 1.64 ± 0.092
[2]
  pre-steady-state target cleavage rate: 0.0497 ± 0.01

## UCCUGGUUCACCUUGCAUAGUAUUUAGUUA
[1]
  pre-steady-state target cleavage rate: 0.34 ± 0.046
[2]
  pre-steady-state target cleavage rate: 0.0124 ± 0.003

## UCCUCCUACAGCUUGCAUACUAUUUAGAAA
[1]
  pre-steady-state target cleavage rate: 0.242 ± 0.043
[2]
  pre-steady-state target cleavage rate: 0.00395 ± 0.0025

## UCGACCUUGUGCUUGCAUAGUAUUUAGUUA
[1]
  pre-steady-state target cleavage rate: 0.871 ± 0.038
[2]
  pre-steady-state target cleavage rate: 0.0513 ± 0.0098

## UCCUGCUACAGCUUGCAUAGUUUUUACUUA
[1]
  pre-steady-state target cleavage rate: 0.122 ± 0.021
[2]
  pre-steady-state target cleavage rate: 0.0143 ± 0.0044

## AGGACGAUCAGCUUGCAUAGUAUUUAGUUA
[1]
  pre-steady-state target cleavage rate: 1.43 ± 0.068
[2]
  pre-steady-state target cleavage rate: 0.0865 ± 0.016

## UCCACCUACUGCUUGCAUAGUAUUUACAAA
[1]
  pre-steady-state target cleavage rate: 0.114 ± 0.017
[2]
  pre-steady-state target cleavage rate: 0.00302 ± 0.0021

## UCCUCCUAGAGCUUGCAUAGUAAUUAGUUA
[1]
  pre-steady-state target cleavage rate: 0.745 ± 0.079
[2]
  pre-steady-state target cleavage rate: 0.0146 ± 0.0025

## UCCACCUUCAGCUUGCAUAGUUUUUAGUUA
[1]
  pre-steady-state target cleavage rate: 0.271 ± 0.023
[2]
  pre-steady-state target cleavage rate: 0.0207 ± 0.0037

## UCCUGGAACAGCUUGCUUAGUAUUUAGUUA
[1]
  pre-steady-state target cleavage rate: 1.14 ± 0.053
[2]
  pre-steady-state target cleavage rate: 0.0404 ± 0.0098

## UCCACCUACAGCUUGCAAAGUAUUUACAAA
[1]
  pre-steady-state target cleavage rate: 0.225 ± 0.037
[2]
  pre-steady-state target cleavage rate: 0.00369 ± 0.0027

## UCCUGCUACAGCUUGCAUAGUUUUAAGUUA
[1]
  pre-steady-state target cleavage rate: 0.186 ± 0.022
[2]
  pre-steady-state target cleavage rate: 0.0109 ± 0.0039

## UCCUGCUACAGCUUGCAUUGUAUUUUGUUA
[1]
  pre-steady-state target cleavage rate: 0.649 ± 0.048
[2]
  pre-steady-state target cleavage rate: 0.0164 ± 0.0042

## UGGACCUACACCUUGCAAAGUAUUUAGUUA
[1]
  pre-steady-state target cleavage rate: 1.11 ± 0.035
[2]
  pre-steady-state target cleavage rate: 0.038 ± 0.0068

## UCCUGGAUGUCCUUGCAUAGUAUUUUGUUA
[1]
  pre-steady-state target cleavage rate: 0.0341 ± 0.0067
[2]
  pre-steady-state target cleavage rate: 0.00633 ± 0.0022

## UCGUCCUACAGCUUGCAUACUAUUUAGUUA
[1]
  pre-steady-state target cleavage rate: 0.374 ± 0.015
[2]
  pre-steady-state target cleavage rate: 0.0339 ± 0.0064

## UCGACCUACAGCUUGGAUAGUAAUUAGUUA
[1]
  pre-steady-state target cleavage rate: 0.777 ± 0.035
[2]
  pre-steady-state target cleavage rate: 0.0256 ± 0.0059

## UCCUGGAUGUGCUUGCAUAGUAUUUGGUUA
[1]
  pre-steady-state target cleavage rate: 0.316 ± 0.022
[2]
  pre-steady-state target cleavage rate: 0.0359 ± 0.009

## UCCUGGAUGAGCUUGCAUUGUAUUUAGAAA
[1]
  pre-steady-state target cleavage rate: 0.0343 ± 0.011
[2]
  pre-steady-state target cleavage rate: 0.00382 ± 0.0027

## UCCUGGUACAGCUUGCAUUGUUUUUAGUUA
[1]
  pre-steady-state target cleavage rate: 0.0471 ± 0.0097
[2]
  pre-steady-state target cleavage rate: 0.0111 ± 0.0034

## UCCUGGAACAGCUUGCAUUGUAUUUAGAUA
[1]
  pre-steady-state target cleavage rate: 0.242 ± 0.025
[2]
  pre-steady-state target cleavage rate: 0.0106 ± 0.0042

## UCGACCUACAGCUUGCAAUGUAUUUAGUAA
[1]
  pre-steady-state target cleavage rate: 0.341 ± 0.037
[2]
  pre-steady-state target cleavage rate: 0.00256 ± 0.002

## UGGAGCUACAGCUUGCAUAGUAUUUACAAA
[1]
  pre-steady-state target cleavage rate: 0.276 ± 0.036
[2]
  pre-steady-state target cleavage rate: 0.00812 ± 0.0027

## UCCUGGAACAGCUUGCAUAGUAUUGAGUUA
[1]
  pre-steady-state target cleavage rate: 0.439 ± 0.043
[2]
  pre-steady-state target cleavage rate: 0.0332 ± 0.0068

## UCCUCCUACAGCUUGGAUAGUAUUUAGAUA
[1]
  pre-steady-state target cleavage rate: 0.372 ± 0.039
[2]
  pre-steady-state target cleavage rate: 0.00865 ± 0.0019

## UCCUGCAUGAGCUUGCAUAGUAUUUAGUAA
[1]
  pre-steady-state target cleavage rate: 0.824 ± 0.1
[2]
  pre-steady-state target cleavage rate: 0.0221 ± 0.0066

## UCCACCUACAGCUUGCAAAGUAUUUUGUUA
[1]
  pre-steady-state target cleavage rate: 0.517 ± 0.04
[2]
  pre-steady-state target cleavage rate: 0.0118 ± 0.0016

## UCGACCUACAGCUUUCAUAGUAUUUAGUUA
[1]
  pre-steady-state target cleavage rate: 0.584 ± 0.031
[2]
  pre-steady-state target cleavage rate: 0.0288 ± 0.0064

## UCGACCUACAGCUAGCAUAGUAAUUAGUUA
[1]
  pre-steady-state target cleavage rate: 0.852 ± 0.048
[2]
  pre-steady-state target cleavage rate: 0.00739 ± 0.0019

## UCCUGGAUCAGCUUGCAAAGUAUUUAGAUA
[1]
  pre-steady-state target cleavage rate: 0.465 ± 0.036
[2]
  pre-steady-state target cleavage rate: 0.0134 ± 0.0038

## UCCACCUGACAGCUUGCAUAGUAUUUAGUUA
[1]
  pre-steady-state target cleavage rate: 0.836 ± 0.081
[2]
  pre-steady-state target cleavage rate: 0.0455 ± 0.0084

## UGGACCUACAGGUUGCAUAGUAUUUACUUA
[1]
  pre-steady-state target cleavage rate: 0.124 ± 0.018
[2]
  pre-steady-state target cleavage rate: 0.0241 ± 0.0041

## UCCACCUACAGCUUGCAUAGUAUUGAGUUA
[1]
  pre-steady-state target cleavage rate: 0.467 ± 0.054
[2]
  pre-steady-state target cleavage rate: 0.0279 ± 0.0048

## AGGACCUACUGCUUGCAUAGUUUUUAGUUA
[1]
  pre-steady-state target cleavage rate: 0.339 ± 0.017
[2]
  pre-steady-state target cleavage rate: 0.032 ± 0.0067
